# In the supplement of paper PMC8728848:
# The other results are listed elsewhere or left out.
# B1: FliD (Clostridium difficile) (protein)
# chain: MSSISPVRVTGLSGNFDMEGIIEASMIRDKEKVNKAKQDQQIVKWKQEIYRDIIKESKNLYDKYLNGDSPNSITNKKAYSATRITSSDESIIVAKGSAGAEKINYQFAVSQMAEPAKVTIKLNSSDPIVQQFPPNASGASSLNIGGVNIPISEQDTTSTIVSKINSLCADNDIRASYSEMTGELIISRKQTGSSSDIDLKVIGNDSLAGQIASDNGITFTTDASGTKSAVVYGKNLEADVTDDQGRVTHISKEQNSFKIDNIDYNVNSKGSAKLVSVTDTEEATKNMKAFVDDYNALMDKVYGLVTTKKSKDYPPLTDEQKDDMTTEEIEKWEKKAKEGILRNDDELRAFVEDIQSMFFGDADTIIALRKLGISEHENYNKKGQISFNADTFSKALIDDSDKVYKALAGYSSNYDDKGMFEKLKKIVFEYSGSSASKLTKKAGMENSSSASQNVYSKQIAEQERNISRLVEKMNDKEKRLYAKYSALESLLNKYSSQMNYFSQAQGN
# How the values were obtained:
# Assay in all cases: glycan array binding signal (z-score within array); higher = stronger binding
# Details in all cases: glycan notation: IUPAC condensed, linker removed
# [1] = target: Neu5Ac(a2-3)GalNAc(b1-4)GlcNAc
# In short: (§1)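 Glycan array data were curated from 3228 arrays in the Consortium for Functional Glycomics database and kept only where the protein sequence was available. Glycan names were converted to IUPAC-condensed notation, and columns mapping to the same glycan were averaged. The binding signal is a within-array Z-score, averaged across arrays of the same protein sequence at different concentrations or buffers and across linkers. Negative Z-scores can be read as non-binding.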
# [2] = target: Neu5Ac(a2-3)[GalNAc(b1-4)]Gal(b1-4)Glc
# In short: as §1
# [3] = target: Neu5Ac(a2-3)[GalNAc(b1-4)]Gal(b1-4)GlcNAc
# In short: as §1
# [4] = target: Neu5Ac(a2-3)[GalNAc(b1-4)]Gal(b1-4)GlcNAc(b1-3)GalNAc
# In short: as §1
# [5] = target: Neu5Ac(a2-3)[Neu5Ac(a2-6)]GalNAc
# In short: as §1
# Neu5Ac(a2-6)Gal = target: Neu5Ac(a2-6)Gal
# In short: as §1
# [6] = target: Neu5Ac(a2-6)Gal(b1-3)GlcNAc(b1-3)[Gal(b1-4)GlcNAc(b1-6)]Gal(b1-4)Glc
# In short: as §1
# Neu5Ac(a2-6)Gal(b1-4)Glc = target: Neu5Ac(a2-6)Gal(b1-4)Glc
# In short: as §1
# [7] = target: Neu5Ac(a2-6)Gal(b1-4)GlcNAc
# In short: as §1
# [8] = target: Neu5Ac(a2-6)Gal(b1-4)GlcNAc(b1-2)Man
# In short: as §1
# [9] = target: Neu5Ac(a2-6)Gal(b1-4)GlcNAc(b1-2)Man(a1-3)Man(b1-4)GlcNAc(b1-4)GlcNAc
# In short: as §1
# [10] = target: Neu5Ac(a2-6)Gal(b1-4)GlcNAc(b1-2)Man(a1-3)[Gal(b1-4)GlcNAc(b1-2)Man(a1-6)]Man(b1-4)GlcNAc(b1-4)GlcNAc
# In short: as §1
# [11] = target: Neu5Ac(a2-6)Gal(b1-4)GlcNAc(b1-2)Man(a1-3)[GlcNAc(b1-2)Man(a1-6)]Man(b1-4)GlcNAc(b1-4)GlcNAc
# In short: as §1
# [12] = target: Neu5Ac(a2-6)Gal(b1-4)GlcNAc(b1-2)Man(a1-3)[GlcNAc(b1-4)][Neu5Ac(a2-6)Gal(b1-4)GlcNAc(b1-2)Man(a1-6)]Man(b1-4)GlcNAc(b1-4)GlcNAc
# In short: as §1
# [13] = target: Neu5Ac(a2-6)Gal(b1-4)GlcNAc(b1-2)Man(a1-3)[Man(a1-6)]Man(b1-4)GlcNAc(b1-4)GlcNAc
# In short: as §1
# [14] = target: Neu5Ac(a2-6)Gal(b1-4)GlcNAc(b1-2)Man(a1-3)[Neu5Ac(a2-3)Gal(b1-4)GlcNAc(b1-2)Man(a1-6)]Man(b1-4)GlcNAc(b1-4)GlcNAc
# In short: as §1
# [15] = target: Neu5Ac(a2-6)Gal(b1-4)GlcNAc(b1-2)Man(a1-3)[Neu5Ac(a2-6)Gal(b1-4)GlcNAc(b1-2)Man(a1-6)]Man(b1-4)GlcNAc(b1-4)GlcNAc
# In short: as §1
# [16] = target: Neu5Ac(a2-6)Gal(b1-4)GlcNAc(b1-2)Man(a1-3)[Neu5Ac(a2-6)Gal(b1-4)GlcNAc(b1-2)Man(a1-6)]Man(b1-4)GlcNAc(b1-4)[Fuc(a1-6)]GlcNAc
# In short: as §1
# [17] = target: Neu5Ac(a2-6)Gal(b1-4)GlcNAc(b1-2)Man(a1-6)Man(b1-4)GlcNAc(b1-4)GlcNAc
# In short: as §1
# [18] = target: Neu5Ac(a2-6)Gal(b1-4)GlcNAc(b1-2)Man(a1-6)[Gal(b1-4)GlcNAc(b1-2)Man(a1-3)]Man(b1-4)GlcNAc(b1-4)GlcNAc
# In short: as §1
# [19] = target: Neu5Ac(a2-6)Gal(b1-4)GlcNAc(b1-2)Man(a1-6)[GlcNAc(b1-2)Man(a1-3)]Man(b1-4)GlcNAc(b1-4)GlcNAc
# In short: as §1
# [20] = target: Neu5Ac(a2-6)Gal(b1-4)GlcNAc(b1-2)Man(a1-6)[Man(a1-3)]Man(b1-4)GlcNAc(b1-4)GlcNAc
# In short: as §1
# [21] = target: Neu5Ac(a2-6)Gal(b1-4)GlcNAc(b1-2)[Neu5Ac(a2-6)Gal(b1-4)GlcNAc(b1-4)]Man(a1-3)[GlcNAc(b1-4)][Neu5Ac(a2-6)Gal(b1-4)GlcNAc(b1-2)[Neu5Ac(a2-6)Gal(b1-4)GlcNAc(b1-6)]Man(a1-6)]Man(b1-4)GlcNAc(b1-4)GlcNAc
# In short: as §1
# [22] = target: Neu5Ac(a2-6)Gal(b1-4)GlcNAc(b1-2)[Neu5Ac(a2-6)Gal(b1-4)GlcNAc(b1-4)]Man(a1-3)[GlcNAc(b1-4)][Neu5Ac(a2-6)Gal(b1-4)GlcNAc(b1-4)Man(a1-6)]Man(b1-4)GlcNAc(b1-4)GlcNAc
# In short: as §1
# [23] = target: Neu5Ac(a2-6)Gal(b1-4)GlcNAc(b1-2)[Neu5Ac(a2-6)Gal(b1-4)GlcNAc(b1-6)]Man(a1-6)[Neu5Ac(a2-6)Gal(b1-4)GlcNAc(b1-2)Man(a1-3)][GlcNAc(b1-4)]Man(b1-4)GlcNAc(b1-4)GlcNAc
# In short: as §1
# [24] = target: Neu5Ac(a2-6)Gal(b1-4)GlcNAc(b1-3)Gal(b1-3)GlcNAc
# In short: as §1
# [25] = target: Neu5Ac(a2-6)Gal(b1-4)GlcNAc(b1-3)Gal(b1-4)GlcNAc
# In short: as §1
# [26] = target: Neu5Ac(a2-6)Gal(b1-4)GlcNAc(b1-3)Gal(b1-4)GlcNAc(b1-2)Man(a1-3)[Neu5Ac(a2-6)Gal(b1-4)GlcNAc(b1-3)Gal(b1-4)GlcNAc(b1-2)Man(a1-6)]GalNAc
# In short: as §1
# [27] = target: Neu5Ac(a2-6)Gal(b1-4)GlcNAc(b1-3)Gal(b1-4)GlcNAc(b1-3)Gal(b1-4)GlcNAc
# In short: as §1
# [28] = target: Neu5Ac(a2-6)Gal(b1-4)GlcNAc(b1-3)Gal(b1-4)GlcNAc(b1-3)Gal(b1-4)GlcNAc(b1-2)Man(a1-3)[Neu5Ac(a2-6)Gal(b1-4)GlcNAc(b1-3)Gal(b1-4)GlcNAc(b1-3)Gal(b1-4)GlcNAc(b1-2)Man(a1-6)]GalNAc
# In short: as §1
# [29] = target: Neu5Ac(a2-6)Gal(b1-4)GlcNAc(b1-3)Gal(b1-4)GlcNAc(b1-3)GalNAc
# In short: as §1
# [30] = target: Neu5Ac(a2-6)Gal(b1-4)GlcNAc(b1-3)Gal(b1-4)GlcNAc(b1-3)[Neu5Ac(a2-6)Gal(b1-4)GlcNAc(b1-3)Gal(b1-4)GlcNAc(b1-6)]GalNAc
# In short: as §1
# [31] = target: Neu5Ac(a2-6)Gal(b1-4)GlcNAc(b1-3)Gal(b1-4)GlcNAc(b1-6)[Gal(b1-3)]GalNAc
# In short: as §1
# [32] = target: Neu5Ac(a2-6)Gal(b1-4)GlcNAc(b1-3)Gal(b1-4)[Fuc(a1-3)]GlcNAc(b1-3)Gal(b1-4)[Fuc(a1-3)]GlcNAc
# In short: as §1
# [33] = target: Neu5Ac(a2-6)Gal(b1-4)GlcNAc(b1-3)GalNAc
# In short: as §1
# [34] = target: Neu5Ac(a2-6)Gal(b1-4)GlcNAc(b1-3)[Neu5Ac(a2-6)Gal(b1-4)GlcNAc(b1-6)]GalNAc
# In short: as §1
# [35] = target: Neu5Ac(a2-6)Gal(b1-4)GlcNAc(b1-6)GalNAc
# In short: as §1
binder,measurement,setting,value
B1,glycan array binding signal (z-score),[1],-0.144
same,glycan array binding signal (z-score),[2],-0.264
same,glycan array binding signal (z-score),[3],-0.279
same,glycan array binding signal (z-score),[4],0.016
same,glycan array binding signal (z-score),[5],-0.226
same,glycan array binding signal (z-score),Neu5Ac(a2-6)Gal,-0.156
same,glycan array binding signal (z-score),[6],-0.197
same,glycan array binding signal (z-score),Neu5Ac(a2-6)Gal(b1-4)Glc,-0.116
same,glycan array binding signal (z-score),[7],-0.197
same,glycan array binding signal (z-score),[8],-0.21
same,glycan array binding signal (z-score),[9],-0.227
same,glycan array binding signal (z-score),[10],-0.163
same,glycan array binding signal (z-score),[11],-0.223
same,glycan array binding signal (z-score),[12],-0.165
same,glycan array binding signal (z-score),[13],-0.232
same,glycan array binding signal (z-score),[14],-0.207
same,glycan array binding signal (z-score),[15],-0.145
same,glycan array binding signal (z-score),[16],0.021
same,glycan array binding signal (z-score),[17],-0.179
same,glycan array binding signal (z-score),[18],-0.169
same,glycan array binding signal (z-score),[19],-0.223
same,glycan array binding signal (z-score),[20],-0.197
same,glycan array binding signal (z-score),[21],-0.249
same,glycan array binding signal (z-score),[22],-0.074
same,glycan array binding signal (z-score),[23],-0.221
same,glycan array binding signal (z-score),[24],-0.263
same,glycan array binding signal (z-score),[25],-0.268
same,glycan array binding signal (z-score),[26],-0.063
same,glycan array binding signal (z-score),[27],-0.173
same,glycan array binding signal (z-score),[28],-0.008
same,glycan array binding signal (z-score),[29],-0.237
same,glycan array binding signal (z-score),[30],0.001
same,glycan array binding signal (z-score),[31],-0.161
same,glycan array binding signal (z-score),[32],-0.193
same,glycan array binding signal (z-score),[33],-0.097
same,glycan array binding signal (z-score),[34],-0.217
same,glycan array binding signal (z-score),[35],-0.021
